In this experiment the test system is NCI-H1944. Briefly: normalised cell viability (NPI; 0 = phenylarsine oxide control, 1 = DMSO control) (fraction of DMSO control); NCI-H1944 is a non-small cell lung cancer line; higher = more viable cells (less compound toxicity). The settings on record: 6 days.
Where [1] appears, read: glucocorticoid arm: hydrocortisone 2.75 uM co-treatment, compound 1 µM.
The mark [2] stands for this setting: glucocorticoid arm: hydrocortisone 2.75 uM co-treatment, compound 5 µM.
[3] abbreviates: glucocorticoid arm: hydrocortisone 2.75 uM pre-treated 2 days and continued, compound 1 µM.
Where [4] appears, read: glucocorticoid arm: hydrocortisone 2.75 uM pre-treated 2 days and continued, compound 5 µM.
The mark [5] stands for this setting: glucocorticoid arm: vehicle, compound 1 µM.
[6] abbreviates: glucocorticoid arm: vehicle, compound 5 µM.

Structures can show the parent of a compound that is named as a salt. ± gives the standard deviation of the averaged measurements. Whole data set: some 1,900 compounds, median “normalised cell viability (NPI; 0 = phenylarsine oxide control, 1 = DMSO control)” near 1, cut for the lowest 2% near 0.039. Some of the results follow.
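Also: CTB read-out in 384-well plates, mean of triplicate wells, normalised per plate against 1 µM phenylarsine oxide and 0.1% DMSO, compounds added 24 h after seeding.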

With `CN(C)CCCN1c2ccccc2Sc2ccccc21` [Promazine hydrochloride], the normalised cell viability runs as follows: under setting [1], 1.001 ± 0.0085; under setting [2], 0.9797 ± 0.0065; under setting [3], 1.03 ± 0.021; under setting [4], 1.017 ± 0.0058; under setting [5], 0.9927 ± 0.0011; under setting [6], 0.997 ± 0.013.

For the compound `Cc1cc(C(C)(C)C)c(O)c(C)c1CC1=NCCN1` [Oxymetazoline HCl], the normalised cell viability is, setting by setting: under setting [1], 0.9847 ± 0.0035; under setting [2], 0.994 ± 0.01; under setting [3], 1 ± 0.021; under setting [4], 0.99 ± 0.029; under setting [5], 0.9923 ± 0.0075; under setting [6], 1 ± 0.014.

Take `Cc1cc(C(C)(C)C)c(O)c(C)c1CC1=NCCN1` [Oxymetazoline hydrochloride]: the normalised cell viability was determined as 0.989 ± 0.011 under setting [1]; 0.965 ± 0.0062 under setting [2]; 1 ± 0.015 under setting [3]; 1.02 ± 0.084 under setting [4]; 0.9813 ± 0.0067 under setting [5]; 0.992 ± 0.016 under setting [6].

On to `C[N+]1(C)[C@@H]2C[C@@H](OC(=O)C(O)(c3cccs3)c3cccs3)C[C@H]1[C@@H]1O[C@@H]12` [Tiotropium Bromide hydrate], for which the normalised cell viability under setting [1] was 1.03 ± 0.02; the normalised cell viability under setting [2] came out at 1.01 ± 0.011; the normalised cell viability under setting [3] was found to be 1.03 ± 0.01; the normalised cell viability under setting [4] was found to be 1.02 ± 0.036; the normalised cell viability under setting [5] stood at 1.007 ± 0.0058; the normalised cell viability under setting [6] worked out at 0.988 ± 0.007.

`CSc1ccc2c(c1)C(N1CCN(C)CC1)Cc1ccccc1S2` (centres undefined) [Methiothepin mesylate]: the normalised cell viability is 1.01 ± 0.011 under setting [1]; 1.02 ± 0.011 under setting [2]; 1.013 ± 0.0058 under setting [3]; 1.05 ± 0.095 under setting [4]; 0.998 ± 0.002 under setting [5]; 1 ± 0.013 under setting [6].

Turning to `O=C(/C=C/c1ccc2ccccc2n1)c1ccncc1`, the normalised cell viability runs as follows: under setting [1], 1.01 ± 0.013; under setting [2], 1.067 ± 0.0058; under setting [3], 1.02 ± 0.01; under setting [4], 1.02 ± 0.015; under setting [5], 1.01; under setting [6], 1.01 ± 0.01.

Consider `O=C(O)CCC(NC(=O)c1ccccc1C(=O)O)C(=O)O` [Phthalamoyl-L-glutamic acid trisodium], for which the normalised cell viability reads like this: under setting [1], 0.9933 ± 0.0031; under setting [2], 1.06 ± 0.021; under setting [3], 0.869 ± 0.23; under setting [4], 1.03 ± 0.025; under setting [5], 0.997 ± 0.0052; under setting [6], 1.006 ± 0.0063.

Take `CC(C)N(C[C@H]1O[C@@H](n2cnc3c(N)ncnc32)[C@H](O)[C@@H]1O)[C@H]1C[C@@H](CCc2nc3cc(C(C)(C)C)ccc3[nH]2)C1`: the normalised cell viability under setting [1] was 1.001 ± 0.0085; the normalised cell viability under setting [2] came to 1.073 ± 0.0058; the normalised cell viability under setting [3] turned out to be 0.993 ± 0.015; the normalised cell viability under setting [4] was determined as 1.03 ± 0.01; the normalised cell viability under setting [5] was 0.995 ± 0.016; the normalised cell viability under setting [6] amounted to 0.9977 ± 0.0025.

Take `C=Cc1c(C)c2cc3[nH]c(cc4nc(cc5nc(cc1[nH]2)C(C)=C5CCC(=O)O)C(CCC(=O)O)=C4C)c(C)c3C=C` [Protoporphyrin IX]: the normalised cell viability reads like this: under setting [1], 0.9863 ± 0.0084; under setting [2], 1.02 ± 0.029; under setting [3], 1 ± 0.024; under setting [4], 1.03 ± 0.017; under setting [5], 0.9833 ± 0.0042; under setting [6], 0.98 ± 0.009.

For the compound `Cc1ccc(O)c(N=Nc2ccccc2)n1`, the normalised cell viability runs as follows: under setting [1], 1.013 ± 0.0058; under setting [2], 1.013 ± 0.0058; under setting [3], 1.02 ± 0.029; under setting [4], 1.01 ± 0.011; under setting [5], 1.01; under setting [6], 1.01 ± 0.013.

For `CN1CCc2cc(O)c(O)cc2C(c2ccccc2)C1` (centres undefined), the normalised cell viability reads like this: under setting [1], 1 ± 0.0087; under setting [2], 1.02 ± 0.022; under setting [3], 0.876 ± 0.23; under setting [4], 1.01 ± 0.02; under setting [5], 1.02; under setting [6], 1.023 ± 0.0058.

Take `CCn1c2ccccc2c2cc(Nc3ccnc(NCCCN4CCOCC4)n3)ccc21`: the normalised cell viability was 1.04 ± 0.01 under setting [1]; 1.04 ± 0.02 under setting [2]; 1.04 ± 0.01 under setting [3]; 1.01 ± 0.036 under setting [4]; 1.01 ± 0.015 under setting [5]; 0.438 ± 0.12 under setting [6].

Consider `Cc1cn(C2C=CC(CO)O2)c(=O)[nH]c1=O` (centres undefined) [2',3'-didehydro-3'-deoxythymidine], for which the normalised cell viability under setting [1] is 0.995 ± 0.013; the normalised cell viability under setting [2] is 0.983 ± 0.033; the normalised cell viability under setting [3] is 0.989 ± 0.023; the normalised cell viability under setting [4] came out at 0.981 ± 0.017; the normalised cell viability under setting [5] stood at 0.9803 ± 0.004; the normalised cell viability under setting [6] was 0.983 ± 0.001.

As for `NC1(C(=O)N[C@@H](CCO)c2ccc(Cl)cc2)CCN(c2ncnc3[nH]ccc23)CC1`, the normalised cell viability was 0.748 ± 0.021 under setting [1]; 0.613 ± 0.036 under setting [2]; 0.776 ± 0.011 under setting [3]; 0.672 ± 0.03 under setting [4]; 0.9227 ± 0.0084 under setting [5]; 0.701 ± 0.036 under setting [6].

For the origin of these results see the supplement of paper PMC8285479.
